Hit rate of the full screen: of about 150,000 compounds, about 540 (0.36%) showed an effect of 50% or more. The list shows a part of the results.
Tested on: Plasmodium falciparum
Experiment: Primary screen in NF54 nanoGlo assay, in single point, at 2uM, 72h; a lower Z score goes with more inhibition
Assay type: functional, Erythrocyte
Details: timepoint 72 hour

SMILES | % Inhibition | Z score
COC(=O)c1ccc(N2CCC3CCCCC32)nn1 (stereo unspecified) | 2% | -0.33
CCC(C)C(C)(O)CNc1ccc(S(C)(=O)=O)cc1 (stereo unspecified) | -6% | 0.76
CC[C@H](O)CCNS(=O)(=O)N1CCC(C(C)(C)C)CC1 | -14% | 2.07
Cc1cnc(C[C@H]2CCCN(C(=O)NC(C)(C)C)C2)n1CC1CC1 | 4% | -0.66
CC(C)CN1CCC[C@H]1c1nc(-c2ccc(F)cn2)no1 | -9% | 1.11
Cc1ccc(CNc2nc3c(C)cccc3cc2-c2noc(-c3ccccc3)n2)o1 | -3% | 0.35
CCC1CCC(C(=O)NC2CCN(C(N)=O)C2)O1 (stereo unspecified) | -8% | 1.22
COCC(=O)N(Cc1ccccc1OS(=O)(=O)c1cccc(C(F)(F)F)c1)C[C@H]1CCCO1 | -4% | 0.71
CO[C@@H](CNC(=O)c1ccccc1Cl)c1cc2ccccc2o1 | -3% | 0.51
COc1ccc(C(=O)N2[C@H](C(=O)NCc3ccncc3)COC23CCN(C(=O)CC(C)C)CC3)cc1 | -8% | 1
O=C(C1COCCO1)N1CCCC1c1ccc(Br)cc1 (stereo unspecified) | -16% | 1.48
CCc1nnnn1Cc1nnc(-c2ccc(F)cc2)o1 | 5% | -0.87
CN(C)c1ccc(-c2cnc3ncnn3c2)cn1 | -6% | 0.97
CN1CCN(C(=O)c2coc(CN(Cc3ccc4c(c3)OCO4)Cc3ccccc3Cl)n2)CC1 | 2% | -0.25
Cc1nc2c3ccccc3nc(N3CCC([C@]4(C)NC(=O)NC4=O)CC3)n2n1 | -8% | 1.32
COc1ccc(-c2c(-c3ccccc3)ncn2Cc2ccon2)c(C)c1 | -11% | 1.52
COC(=O)c1ccc(C)c(NC(=O)CCOCC(F)F)c1O | 3% | -0.25
Fc1cccc([C@H]2C[C@H](Nc3cnccn3)C2)c1 | -3% | 0.43
Cc1ccc([C@H](C)NCCN2CCCC2=O)o1 | -8% | 1.06
Cc1noc(C)c1C(=O)N1CCC[C@H](Oc2ncc(Cl)cn2)C1 | -3% | 0.45
COCc1ncsc1C(=O)NC(C)(C)c1nc(C)cs1 | 0% | -0.02
Cc1nnc(C(C)NC2CCC[C@H]3C[C@@H]23)[nH]1 (stereo partly specified) | -14% | 1.41

SMILES | % Inhibition | Z score
CC(C)(C#N)NS(=O)(=O)c1cc(Cl)c(N)c(Cl)c1 | -1% | 0.12
O=C1CNC2(CCN(S(=O)(=O)c3ccc(Cl)cc3)CC2)N1Cc1cccc(C(F)(F)F)c1 | -10% | 0.93
CN(C)Cc1cc(CN[C@H](c2ccccc2)C2(CO)CCCC2)no1 | -10% | 1
Cc1ccccc1-n1c(=O)n(Cc2ccccc2)c(=O)c2c1ncn2CC(=O)c1ccc(Cl)cc1 | 8% | -0.72
CCc1nccn1C[C@H](C)N1CC(Oc2ccc(C)cc2)C1 | -10% | 1.17
O=S(=O)(c1ccc(Cl)cc1)c1cnc2ccccc2c1N1CCN(Cc2ccccc2)CC1 | -4% | 0.45
Cc1cccc2c(-c3nc(N(C)C)n(C)n3)c[nH]c12 | 6% | -0.79
Cc1ccc2cc(CN3C[C@H](O)[C@@H](F)C3)c(N3CCOCC3)nc2c1 | -6% | 0.82
CS(=O)(=O)C[C@H]1CCCCN1C(=O)c1cn2cccnc2n1 | -11% | 1.12
C[C@@H]1C[C@@H](NC(=O)C2(C#N)CC23CCCC3)c2ccccc2O1 (stereo partly specified) | 19% | -2.39
CCN(c1ccc2sc(C(=O)NC)cc2c1)S(=O)(=O)c1ccc(OC)cc1 | -6% | 0.74
C[C@@H](CNC(=O)N1CCC2(CCOCC2)C1)N(C)Cc1ccccc1 | 0% | -0.05
O=C(NCc1ccc(-c2ccco2)nc1)C1CCOCC1 | -7% | 0.86
Cc1occc1C(=O)NCc1nc2ccccc2s1 | -9% | 1.05
CC1CN(CC(C)(C)O)CCN1C(=O)NC1C2Cc3ccccc3C21 (stereo unspecified) | -10% | 1.23
CC(C)CCN1CCC(N(Cc2cccnc2)C2CCOCC2)CC1 | 4% | -0.5
COCCN(C)c1ncnc(N(C)C[C@H]2CCCO2)c1N | 2% | -0.28
CC[C@H]1C=CCN1Cc1c(F)cc(OC)cc1F | 5% | -0.75
CCc1nn(C)cc1NC(=O)N[C@@H](C)c1nccs1 | 1% | -0.15
O=C(c1cnc(-c2ccsc2)s1)N1CCCCCC1CC(O)c1cccs1 (stereo unspecified) | -12% | 1.97
O=C(c1cccnc1)N1C[C@H]2CC[C@@H](C1)N(C(=O)c1n[nH]c3ccccc13)C2 | 5% | -0.46

— ChEMBL document CHEMBL4888484, “Replenishing the malaria drug discovery pipeline: Screening and hit evaluation of the MMV Hit Generation Library 1 (HGL1) against asexual blood stage Plasmodium falciparum ,using a nano luciferase reporter read-out” (2022)
